{
  "source": "PubChem BioAssay AID686979",
  "about": "(National Center for Advancing Translational Sciences (NCATS), 2013)",
  "note": "Out of some 420,000 compounds screened, about 50,000 (12%) were called active. Inconclusive results, whose numbers are uncertain, are shown with a selection of clear calls. Calls follow the shape of the dose curve; as a rule, active = well fitted inhibition curve with a large enough effect; inconclusive = small, poorly fitted or top-dose-only effect; inactive = flat fitted curve, though single readings scatter. No potency is given beside an inconclusive call; the fits are too rough. % is scaled to controls: 0 for no effect and ±100 for the full control effect; potency is read from the fitted curve at half-maximal effect; tags tell the direction and shape of the fitted curve.",
  "data": [
    {"assay": "qHTS for Inhibitors of human tyrosyl-DNA phosphodiesterase 1 (TDP1): qHTS in cells in presence of CPT; also: nearly all actives have a fitted effect of over 55% in size", "conditions": "chicken DT40 Tdp1-/-;hTDP1 cells + 20 nM CPT, ATP luminescence, 48 h; activity change, negative = growth inhibition: at 46.2 µM (top of the series) unless noted", "method_in_brief": "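Chicken DT40 Tdp1-/- cells stably complemented with human TDP1 were seeded at 400 cells/well in medium containing 20 nM camptothecin, exposed to pin-transferred compounds, and grown at 37 °C for at least 48 hr. Viability was read as ATP luminescence.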", "values": [
      {"smiles": "CCn1c(C)c(C2N3CC4(C)CN2CC(CC)(C3)C4=O)c2ccccc21", "note": "(stereo not given)", "activity change, negative = growth inhibition": "inactive: -5.9%"},
      {"smiles": "Cc1sc(NC(=O)C2=COCCO2)nc1-c1ccc(F)cc1", "Potency": "active: 16.4 µM"},
      {"smiles": "Oc1ccc(Cl)cc1C1C=C(c2ccc3c(c2)OCO3)NC(c2ccc(Br)cc2)N1", "note": "(stereo not given)", "Potency": "active: 15.8 µM"},
      {"smiles": "COc1cc2c(C(=O)N3CCN(C)CC3)c(C)oc2cc1Br", "activity change, negative = growth inhibition": "inactive: -0.227%"},
      {"smiles": "O=C(CSc1ccccc1)NCc1ccccn1", "Potency": "inconclusive [inhibitor, single point]"},
      {"smiles": "COc1ccc(NS(=O)(=O)c2ccc3c(c2)C(C(C)C)C(=O)N3)cc1", "note": "(stereo not given)", "Potency": "inconclusive [inhibitor, partial curve, poor fit]"},
      {"smiles": "c1csc(-c2nn3c(C4CCCCC4)nnc3s2)c1", "Potency": "inconclusive [inhibitor, partial curve]"},
      {"smiles": "CN(C)C(CNC(=O)c1cccc(S(=O)(=O)NCc2ccccc2)c1)c1ccco1", "note": "(stereo not given)", "activity change, negative = growth inhibition": "inactive: -10.5%"},
      {"smiles": "O=C(CC1CC2CCC1C2)NCCc1ccc(Cl)cc1", "note": "(stereo not given)", "Potency": "inconclusive [inhibitor, single point]"},
      {"smiles": "COc1ccc(C)cc1Nc1n[n+](-c2ccccc2)c(-c2cccc(Cl)c2Cl)s1", "Potency": "active: 13 µM"},
      {"smiles": "Nc1c(C(=O)Nc2ccccc2Cl)c2ccccn2c1C(=O)c1ccc(Cl)cc1", "activity change, negative = growth inhibition": "inactive: -14.2%"},
      {"smiles": "COc1ccccc1-n1cnc2cc(C(=O)NCc3ccco3)ccc21", "Potency": "inconclusive [inhibitor, single point]"},
      {"smiles": "CCN(CC)c1ccc2c(-c3ccc(S(=O)(=O)O)cc3S(=O)(=O)[O-])c3ccc(=[N+](CC)CC)cc-3oc2c1", "Potency": "inconclusive [inhibitor, partial curve]"},
      {"smiles": "CN(CC(=O)Nc1c(Cl)cccc1Cl)C(=O)c1ccc2nc[nH]c2c1", "activity change, negative = growth inhibition": "inactive: -27.3%"},
      {"smiles": "Cc1ccc(N=C2C(=O)Nc3ccc(C)c(Br)c32)cc1", "Potency": "inconclusive [inhibitor, single point]"},
      {"smiles": "COc1cc2cc(-c3ccc(O)cc3O)nc(C)c2cc1OC", "Potency": "active: 10.3 µM"},
      {"smiles": "COC(=O)c1sccc1S(=O)(=O)N(CC(=O)NCc1ccccc1)c1ccccc1", "activity change, negative = growth inhibition": "inactive: -13.2%"},
      {"smiles": "Cc1ccc(C(=O)N2N=C(c3ccccc3O)CC2c2ccccc2)cc1", "note": "(stereo not given)", "Potency": "inconclusive [inhibitor, single point]"},
      {"smiles": "CCOC(=O)C1(CCCc2ccccc2)CCN(C(=O)CCc2cnn(C)c2)CC1", "Potency": "inconclusive [inhibitor, single point]"},
      {"smiles": "CN(CCNC(=O)C1CCC(=O)N(Cc2ccc(Cl)cc2)C1)CCc1ccccc1", "note": "(stereo not given)", "Potency": "inconclusive [inhibitor, single point]"},
      {"smiles": "Cc1ccc(CNC(=O)C(=O)NCC(c2cccs2)S(=O)(=O)c2ccc(C)cc2)cc1", "note": "(stereo not given)", "Potency": "inconclusive [inhibitor, single point]"},
      {"smiles": "Cc1ccc(S(=O)(=O)N2[C@@H](c3ccc(C(C)(C)C)cc3)C(C(=O)O)=CC[C@H]2c2ccc(Cl)cc2)cc1", "Potency": "active: 23.1 µM"},
      {"smiles": "CN(CCc1ccccc1)C(=O)c1ccc(NC(=O)Cc2ccc(NC(=O)C3CCCN(C(=O)C4CC4)C3)cc2)cc1", "note": "(stereo not given)", "activity change, negative = growth inhibition": "inactive: -28.3%"},
      {"smiles": "NC1=NC(=O)/C(=C\\c2cc([N+](=O)[O-])ccc2Cl)S1", "activity change, negative = growth inhibition": "inactive: -26.1%"},
      {"smiles": "CCN1CCC(NCCc2ccc(F)cc2)CC1", "Potency": "inconclusive [inhibitor, single point]"},
      {"smiles": "CCOC(=O)c1c(C)c(C(=O)NCc2ccc(OC)cc2)c(C)n1C", "activity change, negative = growth inhibition": "inactive: 0.37%"},
      {"smiles": "COc1cc(/C=C/C(=O)OCC(=O)NCc2ccccc2OC)ccc1O", "Potency": "inconclusive [inhibitor, single point]"},
      {"smiles": "Cc1c(C(=O)N2CCC(C)CC2)c(S(=O)(=O)NCc2ccccc2)c(C)n1C", "activity change, negative = growth inhibition": "inactive: -1.28%"},
      {"smiles": "CC1Oc2ccccc2N(CC(=O)Nc2ccc3c(c2)OCCO3)C1=O", "note": "(stereo not given)", "activity change, negative = growth inhibition": "inactive: -13.6%"},
      {"smiles": "NNC(=S)Nc1c(F)cc(F)cc1Br", "Potency": "inconclusive [inhibitor, partial curve]"},
      {"smiles": "Cc1ccc(NCc2ccc(O)c3ncccc23)cc1", "Potency": "inconclusive [inhibitor, single point]"},
      {"smiles": "CCOc1c2c(c(-c3ccc4c(c3)OCO4)c3cc(OC)c(OC)cc13)C(=O)OC2", "Potency": "active: 0.891 µM"},
      {"smiles": "C=CCC[C@H](Cc1ccc(F)cc1)C(=O)OC[C@@H]1CCCN1C(=O)[C@@H](CC=C)CC(=O)NCCO", "Potency": "inconclusive [inhibitor, single point]"},
      {"smiles": "Cc1c(C(=O)N(C)Cc2ccccc2)oc2ccc(S(=O)(=O)N3CCCC3)cc12", "activity change, negative = growth inhibition": "inactive: -21.8%"},
      {"smiles": "CCC(=O)Nc1cccc(-c2nnc(SCC(=O)c3ccccc3)n2C)c1", "Potency": "inconclusive [inhibitor, single point]"},
      {"smiles": "COc1cccc(CCN2CCC(CNS(=O)(=O)c3cc(-c4cc(C)no4)ccc3C)CC2)c1", "Potency": "inconclusive [inhibitor, single point]"},
      {"smiles": "CCc1ccc(CNC(=O)c2ccc3c(c2)NC(=O)C(N2CCOCC2)S3)cc1", "note": "(stereo not given)", "Potency": "active: 23.1 µM"},
      {"smiles": "CCN(CC(=O)NCc1cccs1)C(=O)c1ccc(-c2ccccc2F)o1", "Potency": "inconclusive [inhibitor, single point]"},
      {"smiles": "COc1cccc(C(=O)Cn2c(=O)n(CC3CCCO3)c(=O)c3ccccc32)c1", "note": "(stereo not given)", "activity change, negative = growth inhibition": "inconclusive: -32.9% [inhibitor]"},
      {"smiles": "Cc1noc(C)c1S(=O)(=O)Nc1ccc(C(=O)Nc2ccc(OC(F)(F)F)cc2)cc1", "Potency": "inconclusive [inhibitor, single point]"},
      {"smiles": "Cc1ccc(-c2csc(NC(=S)NC(=O)c3cccs3)n2)cc1", "Potency": "inconclusive [inhibitor, single point]"},
      {"smiles": "Cc1ccc(CNC(=O)Cn2cc(C(F)(F)F)ccc2=O)cc1", "activity change, negative = growth inhibition": "inactive: 8.97%"},
      {"smiles": "O=C(Cn1nnc(-c2ccccc2)n1)N/N=C/c1cc([N+](=O)[O-])c(Cl)cc1Cl", "Potency": "inconclusive [inhibitor, full curve, poor fit]"},
      {"smiles": "Cc1ccc(-n2cc(CN3CCN(C(=O)c4ncn[nH]4)CC3)c(-c3ccc(F)cc3)n2)cc1", "Potency": "inconclusive [inhibitor, single point]"},
      {"smiles": "CC(C)c1onc(C(=O)NC2CCCC2)c1[N+](=O)[O-]", "Potency": "inconclusive [inhibitor, single point]"}
    ]}
  ]
}
